Results published in publication PMC10668032.
The list shows a part of the results. At the low end of the ranking the order means little.

target: SIX1 homeodomain (reference allele) (UniProt Q15475); assay: universal protein binding microarray; details: Universal all-10-mer PBM (8x60K, AMADID 030236), 300 nM GST-tagged protein, Alexa Fluor 488 anti-GST; buffer, salt, pH and temperature not stated; high values mean tight binding; most listed sequences are background and not binding sites; double strand, one strand shown

Sequence | binding signal [E-score]
CCTGATGC | -0.0302
GCCCAAAA | -0.139
AACAAGTG | -0.196
AAAGTATC | 0.413
TAACCTTA | -0.0776
GGGGGTTA | 0.0849
ATCAGTTA | 0.182
ACGATGCA | -0.0233
AAGTATGA | 0.0829
CCCATGAC | -0.128
CGAAACAA | 0.0174
AACGTGCG | -0.276
CATTAGAA | -0.158
CGGTAACG | -0.101
TGACGGAA | -0.306
GGTGACAC | 0.346
AGACCTGC | -0.148
TCTCCTAA | 0.0629
GACCACAA | -0.0821
CTCATGGC | 0.078
AATCGGTC | -0.126
ATCGGGCA | 0.195
AGCGCTGA | -0.138
GAATTCCC | -0.222
GGTGGGTA | 0.101

Sequence | binding signal [E-score]
ACAATAAC | -0.0887
AGTAGGCA | 0.0392
AAACCCAC | 0.0669
AACACTTA | -0.295
GCCCGCAC | -0.227
GAATTCAC | -0.231
GGAATAGA | 0.0724
AGAAGAGA | 0.059
CACACATG | -0.123
CAATGATA | 0.418
AGAAAATC | -0.127
GCGTTTCC | -0.176
CGAAGATC | 0.202
GTGTTCGA | 0.0775
ACGGAGCC | -0.222
CAGGCACC | -0.0139
CAACACAA | -0.137
AACCCTCC | -0.206
TACGCTGA | 0.224
AGGCCTTA | -0.199
AGTCATAA | -0.185
GTAGCAAC | -0.187
ATTCCGGA | 0.106
CAGGCAAG | -0.0906
CATAGGGC | -0.149

Sequence | binding signal [E-score]
ATATGGTA | 0.256
TCACCACA | -0.0476
CAAGCGAG | 0.02
CACAACGC | -0.113
CAGAGTCA | -0.142
AGTGTGGG | -0.0742
CTGAGAAG | 0.0736
ACAGGTAA | -0.11
CGCCGAGA | 0.0577
CAATAGCC | -0.0899
CGACTTCC | -0.316
AGGATCAA | 0.352
AATAAACG | -0.119
AAGATCAG | 0.195
CGAGCCCC | 0.172
AGTTATCG | 0.19
CGCACCGC | -0.0543
GTGTTAAC | -0.0456
AAATGTGA | -0.112
AGCGTATA | 0.233
AATGGTAC | -0.184
GGAAACTA | -0.0597
GGCGTACA | -0.0813
CCCAAGCA | 0.263
AGAACCCA | -0.106

Sequence | binding signal [E-score]
ACCGGCTG | 0.00468
GCTCCGTA | 0.008
TATTGGAA | -0.118
AAGAACCG | -0.0662
GCTTTGAC | -0.253
AGGCTTTG | -0.245
CACCGAGA | 0.0619
ACGTTCGG | -0.148
ACGGTACG | 0.144
CGCCTGAA | 0.019
CAAAAAGG | -0.169
AAAGGAAC | -0.136
AATGATAG | 0.309
ACCGCTAT | 0.216
ACTCAGAT | 0.226
GCGAAGAA | -0.287
CAATAGGG | 0.148
ATAAGCCG | -0.0735
AACCGTAT | 0.275
TAGTAGGA | 0.0585
AAAGAGGG | -0.0959
CCGAAACC | 0.185
ATGACTTC | -0.0987
ACTGTTCA | -0.261
ATGCGGTG | 0.0513

Sequence | binding signal [E-score]
CAGGCATG | -0.198
AGTTTCGA | 0.0297
CCGTACTA | 0.0475
ATCATCCC | 0.325
CCAGATCA | 0.39
AAACTGAG | -0.0841
ACCGCACA | 0.0276
CATGCTAG | 0.096
ACCGTCGT | -0.136
TAACCAGA | -0.0692
CTCCCGAC | 0.00862
ACACGGCT | 0.2
CTGCGACC | -0.211
CGCCGGTA | -0.0517
AGGTCGTA | 0.0282
CCTGGGTC | 0.0702
CACAGCTA | -0.0358
ATTAGAGG | 0.0169
AACCACCA | -0.0199
ATCCTCTC | 0.264
GCCAATGA | -0.0233
AACCATAT | 0.303
CAGAATCC | -0.0189
GAATTCGC | -0.0658
ACCCTTCA | 0.0406

Sequence | binding signal [E-score]
AATGTTGG | -0.197
CCTCTTCG | 0.0534
TTCGCGAA | -0.0959
TCTTCTCA | 0.147
ACTGCTTA | -0.22
ACTGTTAG | -0.207
ACAGCATA | 0.0833
ACAGATCT | 0.11
CATACCCC | 0.258
CCTGTAAC | -0.104
ACGTGCAA | -0.24
CCCATAGA | -0.108
GATACGTA | 0.429
AACCGTAC | -0.00198
CCATTAGA | 0.00933
AAGAAGTG | -0.103
CCCCCGAG | -0.0968
CAAGAGTC | -0.233
ATTGAGCG | 0.0633
CGCCGATA | 0.376
CACTTATC | 0.152
CTATAAAA | -0.0451
CGCTTTAG | 0.0361
ACTACCAT | -0.0233
GGCTGATA | 0.422

Sequence | binding signal [E-score]
ACATGGAA | -0.144
ATCTAGTG | 0.145
ATGTACTC | 0.0282
AGAGCTCG | -0.0892
GATTGCCC | -0.156
AGCGGTTA | -0.233
CGGTGAAG | 0.0317
ACTTTGCG | -0.0368
GAAAGCCC | -0.0185
CCTGGCCC | -0.248
CACTTCAG | -0.0713
GAGCAGGA | 0.00201
CCTGTCTC | 0.123
AAAATTCC | -0.264
GATAAGCC | 0.0917
CCTAACCA | -0.119
AGGTGAAC | -0.06
ATATTCAA | 0.155
GCCTAGTA | 0.00981
AGGTCGCA | -0.127
AGCTGCAA | -0.225
GACGTCAC | -0.127
GGTGTACA | 0.306
GATGAGGC | -0.1
ACATGAGG | -0.137

Sequence | binding signal [E-score]
CCGTTTAA | -0.00389
CCGCCCGG | 0.0433
AAGATACA | 0.265
CCAAGCAA | -0.0962
GGAGCACC | 0.0657
CAGTCTTA | -0.145
AGCAGTGA | 0.0242
CATTTTGA | 0.0474
AGCGTCCT | -0.244
CTTATGGA | -0.201
ACGACATA | 0.084
GTATACGA | 0.308
CAGTTTAA | -0.0808
GGTGCTGA | -0.00048
AGGTGGAC | -0.123
AAAGTTTA | -0.167
AATTTTAG | -0.249
GCTTTAAC | -0.149
ATTAGCGA | 7e-05
AAGCAACA | -0.186
ATTCTCAA | 0.0887
AGACAGGA | -0.00485
ACACATAG | -0.065
ATCAATGG | 0.162
ACAAAGGA | -0.00839

Sequence | binding signal [E-score]
CCTCAAAC | -0.127
CGGCCACC | -0.231
GGTTCTCA | 0.237
TGTCAAAA | -0.0702
GCTTGCCC | -0.214
AGGTGGGG | 0.00643
ACACCGGG | 0.301
CTGACTTA | -0.197
CTCAAGCC | -0.0792
AGAAGAAA | -0.209
CTGTGCAA | -0.109
ACCATAAG | -0.0256
AGTTTCGG | -0.247
CGTGAGAC | 0.252
AATAAATG | -0.294
ACTGTCGG | -0.182
AGATGCTC | -0.0346
CCGTTGAG | -0.115
AGCTGGGC | -0.159
CTAGGCCA | -0.285
CAATCCTC | 0.0493
GGAGGTCA | -0.136
TCAGTTCA | -0.0765
CCACGTGG | 0.024
ATTATACC | 0.389

Sequence | binding signal [E-score]
AATAACAC | 0.151
AGGACTAC | -0.188
CAAAATCA | -0.247
ATTACGGA | 0.0351
GAAACATA | 0.0439
CTAAATCC | 0.0532
CCATTACC | -0.158
ATTAGCCG | 0.226
GAGGCTCA | -0.0463
ATGCGCTC | -0.0418
ATAGTCGG | -0.0304
CCACCTAG | -0.0558
ATATCGTC | 0.382
GTCGATTA | -0.033
CTTCCGGA | -0.0895
CACAGCCG | 0.103
CAAGTTTA | -0.177
CGAGTAAA | -0.154
AAACCCTT | -0.0427
CGGTGCCA | -0.0515
CATCAGTC | -0.124
TCTCAAGA | -0.0536
AACTCTAC | -0.27
CAGTGACC | -0.0547
ACATTACC | -0.26

Sequence | binding signal [E-score]
GTTAAAGA | -0.113
CATCCCAA | -0.00605
CGTAACAA | -0.23
CGAATTAG | -0.114
ACGTACTG | -0.205
AGGTATGA | 0.242
AACTTTCG | -0.264
AAGAACAG | -0.131
ACCGAGCA | -0.0311
GGAGGACA | 0.055
ATAGAGGG | 0.0444
AGTACCAG | -0.0198
TCTTCGAA | -0.0708
AAGTGTAG | -0.0746
GACTCCGA | -0.039
ATATTCGA | 0.0818
GTCCACAC | 0.00998
AGGAGAAA | -0.319
CTGTTAAA | -0.219
GAGCGAGC | -0.146
CTGTTTTA | -0.0989
GTTAGGCA | -0.297
CACAGAGC | -0.341
CGCACTAC | 0.000925
GACAATAC | 0.16

Sequence | binding signal [E-score]
ATCATCTA | 0.304
GGGCCGCA | -0.169
GACGCCGC | -0.116
CATTACCG | -0.137
TATACTCA | 0.192
ATTCTTTC | -0.178
CCTACTCC | -0.0716
GACGGTCC | -0.24
GCCGAGGC | -0.0166
AATCCCTG | 0.082
GCGGCACC | -0.134
ATAAAAGC | -0.214
AGCGCTAA | -0.0845
GACTGTGC | -0.21
ATGGTGGC | -0.138
GTACACAC | 0.111
GTCGAGTA | 0.0231
AGGCGTGG | -0.101
TAGGCTAA | 0.0328
CGGATCGA | 0.34
GGATTCCC | 0.0403
AGGGTACA | -0.034
AGCGGATC | 0.375
CATCATGA | 0.0921
GGCCGCCC | -0.15

Sequence | binding signal [E-score]
ATGATAAA | 0.00022
TATTGCGA | 0.232
ACTACTCG | 0.163
GTTCCGGA | 0.0111
GTTCGGAA | -0.262
AGTTTACC | -0.189
GGACATGA | -0.0202
GATTGGGA | -0.0578
TACTGTGA | 0.101
ATGGCGCA | -0.0966
ATTTTGTA | -0.231
CAGGTTCA | -0.0522
CAGATCGC | 0.284
AAAGGACT | -0.24
TGCCGGCA | -0.289
ACAATGTA | -0.0341
CACTTACC | 0.0711
CCTAGACG | 0.13
CTCAGCCA | -0.103
ACAATCGT | -0.187
CTGCCATC | -0.0173
CGACGTCA | -0.147
GGAGAAAC | -0.0418
GTAGACAA | -0.0411
GGACACGA | 0.176

Sequence | binding signal [E-score]
CGGCTGAC | 0.114
CGCATTCC | -0.18
CACGTATA | 0.304
AGTAAGTA | 0.0416
CCAGCCCA | -0.204
ACGCACTA | -0.107
AGCACCGG | -0.0286
CTGATATA | 0.358
AAGTCCAA | -0.275
ATCGGAGG | 0.145
CAAGGTCG | -0.147
CTTGATGC | -0.0118
ATGTCGGA | 0.0566
CGCTATAC | 0.254
AAATGGTC | -0.207
CACCCCTG | 0.156
CACGGCGC | -0.129
AATTTCTA | -0.245
CAAACGAG | 0.0049
